According to ChEMBL document CHEMBL5308541, “MAIP: An Open-Source Tool to Enrich High-Throughput Screening Output and Identify Novel, Druglike Molecules with Antimalarial Activity” (ACS Med Chem Lett, 2023):
Screen size: about 150,000 compounds; about 540 (0.36%) showed an effect of 50% or more. The list shows a part of the results.

system: Plasmodium falciparum; experiment: Primary screen in NF54 nanoGlo assay, in single point, at 2uM, 72h; a lower Z score goes with more inhibition; type: functional, Erythrocyte; conditions: timepoint 72 hour

SMILES	% Inhibition	Z score
Cc1cccc([C@@H](C)CNC2CCN(CCN3CCOCC3)CC2)c1	-4%	0.67
CC(C)CN1CCN(c2cc(NC3CC3)nc(N)n2)C[C@@H]1CCO	1%	-0.17
FC1(F)CC12CC1CCC(C2)N1c1ncnc2[nH]ccc12 (centres undefined)	-2%	0.34
N#Cc1ccc(C(=O)N(CCC(=O)N2CCNCC2)CCN2CCN(c3ccccc3)CC2)cc1	-11%	1.9
c1cncc(-c2nc3c(c(NCC[C@H]4CCCN4)n2)CNC3)c1	-3%	0.58
O=C(Cn1ccn2nc(-c3ccc4c(c3)OCO4)cc2c1=O)Nc1cccc(Cl)c1	1%	-0.22
CN1CCN(c2cc(N3CCC[C@H](CN4CCCCC4)C3)nc(N)n2)CC1	-9%	1.34
Cc1cc(NCCN2CCC(CO)CC2)nc(N2CCCC2)n1	3%	-0.56
O=C(NCC1CCN(CCc2ccccc2)CC1)Nc1ccc2[nH]ncc2c1	-2%	0.48
CCOC(=O)c1cnc2c(cnn2C)c1N(C)Cc1c(C)noc1C	3%	-0.54
COC1CCCC12CCCN(S(=O)(=O)c1cc(-c3cc(C(F)(F)F)on3)cs1)C2 (centres undefined)	-5%	0.73
CCOc1ccc(-c2nccn2-c2ccc(N3CCN(C)CC3)nc2)cc1CO	3%	-0.58
NCC[C@H]1CN(C(=O)c2ccc(-c3ccc(NC4CC4)nn3)cc2)CCO1	-12%	2.08
CC(C)COc1ccccc1CN(C)C(=O)CCN1CCCC1=O	-22%	4.28
COCOc1ccc(OC)cc1CNC1CCN(C2CCN(C)CC2)CC1	17%	-3.56
CC(C)Nc1ccnc(NCc2cccnc2N2CCc3ccccc3C2)n1	-2%	0.27
OCC1(CNc2nc(-c3ccncc3)nc3c2CCNC3)CCOCC1	-13%	2.9
Cc1cccc(N2CCC(Nc3ncc(F)c(N4CCCC4)n3)CC2)c1	-11%	2.47
O=C(O)c1ccnc(-c2ccnc(NCCN3CCCC[C@@H]3CO)n2)c1	-5%	0.82
CN(C)Cc1ccc([C@@H]2CCCN2c2cncc(C(=O)N3CCN(C)CC3)n2)cc1	-2%	0.37
C[C@@H](C1CC1)n1nccc1NC(=O)NC1(c2ccc(C#N)cc2)CCOCC1	-10%	1.5

SMILES	% Inhibition	Z score
Nc1n[nH]c2ccc(-c3ccc(C(=O)NCCCN4CCCC4)cc3)cc12	4%	-0.76
N#Cc1cc(C(F)(F)F)ccc1N1CCN(C[C@H]2CCOC2)CC1	-3%	0.5
OCC[C@H]1CCCCCN1Cc1ccc(OCCN2CCOCC2)c(Cl)c1	9%	-1.32
OC(CN1CCC(C2CCCOC2)CC1)CN1CCC(C2CCCOC2)CC1 (centres undefined)	-7%	1.06
c1ccc(-c2ccc(-c3noc([C@H]4CC[C@H](Nc5ncccn5)CC4)n3)cc2)cc1	-5%	1.12
Cc1cc2n(n1)CCCN(c1ccc3cc[nH]c3n1)C2	5%	-0.87
Cc1cc(N2CCC(Nc3ccnc4ccncc34)CC2)nc(C)n1	25%	-5.3
CC(C)Oc1cc(NCC2(CN3CCN(C)CC3)CC2)nc(N)n1	-7%	1.06
CN(C)CC1CC(CO)CN(C(=O)Cc2ccc3[nH]c4ccccc4c3c2)C1 (centres undefined)	-10%	2.07
Cc1noc(Cn2cc(O)c(-c3nc4ccccc4[nH]3)c2N)n1	-12%	1.8
CNCc1nc2cc(C(F)(F)F)ccc2[nH]1	0%	0.04
CNC(=O)c1cc2cc(NC(=O)c3cc(-c4ccco4)[nH]n3)ccc2[nH]1	-6%	0.93
CN(C)CCCN(C)C(=O)c1cccc(-c2ccc3cc[nH]c(=O)c3c2)c1	4%	-0.96
COC1CCN(S(=O)(=O)Nc2cccc(C(=O)CCC(=O)O)c2)CC1	1%	-0.3
COC(=O)CN1CCC(NC2CCN(c3ccc(C)cn3)CC2)CC1	9%	-1.99
CN(Cc1cnc(N)nc1)c1nc(NC2CC2)nc2c1CCNCC2	-10%	1.69
FC(F)(F)Oc1cccc(CNC2CCN(C3CC3)CC2)c1	-13%	2.24
COc1ccc(Nc2nc(Cc3ccsc3)cs2)cc1F	-8%	1.36
Cc1nc(Nc2cccc(Oc3ccccn3)c2)c2cnn(C)c2n1	4%	-0.86
COc1cccc(C(CNCC(O)CN2CCOCC2)c2c[nH]c3ccccc23)c1OC (centres undefined)	-3%	0.55
COc1ccc2nc(NCc3ccnc(O[C@H]4CCOC4)c3)ccc2c1	-4%	0.65

SMILES	% Inhibition	Z score
CC[C@H]1CCCCN1Cc1ccc(C(=O)NCc2nc3ccccc3s2)c(=O)[nH]1	-12%	2.06
COc1ccccc1Nc1nc(N)nc(COc2ccc(-c3nnco3)cc2)n1	-23%	3.44
COC(C(=O)Nc1ccc2[nH]c(-c3ccccc3)nc2c1)C1CCOC1 (centres undefined)	-5%	0.74
CCc1noc(C2CCC(NCCc3cccc4[nH]ccc34)CC2)n1 (centres undefined)	-10%	1.81
CC(C)(CNC(=O)c1nnsc1NC(=O)OC(C)(C)C)NC(=O)OC(C)(C)C	-9%	1.63
Oc1ccc(C(c2c(-c3ccccc3)[nH]c3ccccc23)c2c(-c3ccccc3)[nH]c3ccccc23)cc1	-7%	1.16
Cc1cnccc1NCCNc1nc(C(C)(C)C)nc2c1cnn2C	20%	-3.05
CN(CC(N)=O)C[C@H]1CN(c2cncc(-c3ccccc3)n2)CCO1	-15%	2.53
Cc1ccnc(NCC2CCN(Cc3ccccc3)CC2)n1	-5%	1.17
O=S1(=O)CC[C@H](NCCc2ccc(OCCN3CCCC3)cc2)c2cc(F)ccc21	1%	-0.18
Cn1ncc2c(N)nc(NCCOc3ccc(C#N)cc3)nc21	-9%	1.56
CC(C)(C)OC(=O)N1CCC(CC(=O)N2C3CCC2CC(Oc2ccncc2)C3)CC1 (centres undefined)	-2%	0.31
N#Cc1ccc(N2C[C@H](COCC3CC3)C3(CCN(Cc4cccc(O)c4)CC3)C2)cc1C(F)(F)F	82%	-14.34
c1ccc(N2CCN(C[C@H]3CCCN(c4ncnc5[nH]ccc45)C3)CC2)nc1	-6%	1.29
Cc1cc2c(NCCNC3CCCCCC3)nccn2n1	10%	-1.53
CN1CCO[C@H](C(=O)N(CCO)Cc2ccc(Cl)c(Cl)c2)C1	-5%	0.7
CC(C)Nc1cc(-c2cccc(C(=O)NC3(C(N)=O)CCCC3)c2)nc(N)n1	-3%	0.66
CCn1cc(-c2cccc(C(=O)NCCNc3ccncc3C)c2)cn1	16%	-2.73
CCN(C(=O)c1cc(C)nc2cc(F)ccc12)[C@H]1CCOC(C)(C)C1	8%	-1.44
O=C1NCC[C@@H]1Oc1cc(Br)cc(F)c1F	1%	-0.18
CC(=O)N1CCN(Cc2cccc(NCc3n[nH]c4ccccc34)c2)CC1	-4%	0.79

SMILES	% Inhibition	Z score
COc1ccc(-c2[nH]c3ccccc3c2CCC(=O)N2C[C@@H](C)[C@H](C(N)=O)C2)c(OC)c1	-8%	1.27
O=C1[C@@H](Nc2ncc(Br)cn2)CCCN1CCO	-4%	0.86
CCN(CCCN1CCCC1)C(=O)NCCc1c[nH]c2cc(F)ccc12	-4%	0.7
O=S1(=O)CC[C@H](CNC2CCN(c3cccc(-c4cnco4)c3)CC2)C1	-4%	0.61
CCOc1cccnc1C(=O)NCc1ccc(C(=O)O)c(C2CC2)n1	0%	-0.06
CN(C)C(=O)c1ccc(S(=O)(=O)N(c2ccsc2)C2CCCCC2)cc1	-2%	0.39
O=C1CC[C@]2(CCCN(Cc3cccc(F)c3C(F)(F)F)C2)CN1C1CC1	-18%	3.2
Cn1cc(Nc2cccc(C(=O)N3CCCN(CC4CCCCC4)CC3)c2)cn1	15%	-2.68
Cc1ccc(-c2cc(C(=O)N3CCC(Nc4ncccn4)CC3)[nH]n2)o1	6%	-1.09
O=C(Nc1cccc(-c2nc3ccccc3[nH]2)c1)C1(C(F)(F)F)CCOCC1	1%	-0.25
OC12CCCCC1CN(C1CCN(c3ccc(-n4cccn4)cc3)CC1)CC2 (centres undefined)	-8%	1.48
CC(C)(C)OC(=O)NC1CCN(c2nccc3cc(N)ccc23)CC1	8%	-1.14
O=C(O)c1ccc(NS(=O)(=O)c2cnc(C3CC3)s2)cc1C(F)(F)F	-1%	0.2
CCN1CCC[C@@H]1CNc1nnc(-c2cn(C)c3ccccc23)o1	1%	-0.21
NCCN1C(=O)CCC2CN(C(=O)c3nc4ccccn4c3F)CCC21 (centres undefined)	3%	-0.53
CC1CN(c2ccc(Nc3nc4ccccc4s3)cn2)CC(C)O1 (centres undefined)	0%	-0.09
COc1ccc(-c2ncc(C(=O)N3CCC[C@@](O)(C(F)(F)F)CC3)s2)cc1	-12%	1.9
O=C(c1c[nH]c2ncc(Br)cc12)N1CC[C@H](CN2CCCC2)C1	-15%	2.59
Cc1cc(CN2C[C@@H](F)C[C@H]2CNC(=O)c2cc(-c3ccccc3)[nH]n2)on1	1%	-0.2
